The assay deals with NCI-H1944. The assay can be described thus: normalised cell viability (NPI; 0 = phenylarsine oxide control, 1 = DMSO control) (fraction of DMSO control); NCI-H1944 is a non-small cell lung cancer line; higher = more viable cells (less compound toxicity). The note with it: 6 days.
Where [1] appears, read: glucocorticoid arm: hydrocortisone 2.75 uM co-treatment, compound 1 µM.
Setting [2] is: glucocorticoid arm: hydrocortisone 2.75 uM co-treatment, compound 5 µM.
[3] abbreviates: glucocorticoid arm: hydrocortisone 2.75 uM pre-treated 2 days and continued, compound 1 µM.
The mark [4] stands for this setting: glucocorticoid arm: hydrocortisone 2.75 uM pre-treated 2 days and continued, compound 5 µM.
[5] abbreviates: glucocorticoid arm: vehicle, compound 1 µM.
[6] abbreviates: glucocorticoid arm: vehicle, compound 5 µM.

Counter-ions that a name gives are not always drawn. ± gives the standard deviation of the averaged measurements. Whole data set: some 1,900 compounds, median “normalised cell viability (NPI; 0 = phenylarsine oxide control, 1 = DMSO control)” near 1, cut for the lowest 2% near 0.039. The list shows a part of the results.
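Note: CTB read-out in 384-well plates, mean of triplicate wells, normalised per plate against 1 µM phenylarsine oxide and 0.1% DMSO, compounds added 24 h after seeding.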

As for `NC(CP(=O)(O)O)C(=O)O` (racemic) [(±)-2-Amino-3-phosphonopropionic acid], the normalised cell viability under setting [1] is 0.993 ± 0.0066; the normalised cell viability under setting [2] was determined as 0.9903 ± 0.0093; the normalised cell viability under setting [3] was determined as 1.005 ± 0.0087; the normalised cell viability under setting [4] amounted to 1 ± 0.013; the normalised cell viability under setting [5] was determined as 0.9877 ± 0.0049; the normalised cell viability under setting [6] worked out at 0.998 ± 0.013.

On to `NC1CCc2cc(O)c(O)cc2C1` (centres undefined) [6,7-ADTN hydrobromide], for which the normalised cell viability under setting [1] worked out at 1.001 ± 0.009; the normalised cell viability under setting [2] was determined as 1.01 ± 0.011; the normalised cell viability under setting [3] worked out at 0.992 ± 0.022; the normalised cell viability under setting [4] is 1.002 ± 0.0068; the normalised cell viability under setting [5] is 0.98433 ± 0.00058; the normalised cell viability under setting [6] turned out to be 0.9887 ± 0.0059.

Take `N[C@@H]1C[C@H]1c1ccccc1.N[C@H]1C[C@@H]1c1ccccc1` [Tranylcypromine hemisulfate]: the normalised cell viability reads like this: under setting [1], 1 ± 0.026; under setting [2], 0.998 ± 0.019; under setting [3], 1.003 ± 0.01; under setting [4], 1.01 ± 0.024; under setting [5], 1.005 ± 0.0057; under setting [6], 1 ± 0.012.

Take `O=C(CCCN1CCC2(CC1)C(=O)NCN2c1ccccc1)c1ccc(F)cc1` [Spiperone]: the normalised cell viability stood at 0.9873 ± 0.004 under setting [1]; 0.99367 ± 0.00058 under setting [2]; 0.892 ± 0.17 under setting [3]; 1 ± 0.023 under setting [4]; 0.9803 ± 0.0032 under setting [5]; 0.981 ± 0.001 under setting [6].

`COC[C@H]1OC(=O)c2coc3c2[C@@]1(C)C1=C(C3=O)C2CCC(=O)[C@@]2(C)C[C@H]1OC(C)=O` (some centres undefined) [Wortmannin from Penicillium funiculosum]: the normalised cell viability is, setting by setting: under setting [1], 0.916 ± 0.025; under setting [2], 0.279 ± 0.019; under setting [3], 0.978 ± 0.012; under setting [4], 0.843 ± 0.012; under setting [5], 1.043 ± 0.0058; under setting [6], 0.0755 ± 0.0093.

With `CC(C)Oc1cccnc1N(C)C1CCN(Cc2ccccc2)CC1`, the normalised cell viability by setting is: under setting [1], 0.993 ± 0.016; under setting [2], 0.954 ± 0.026; under setting [3], 1.01 ± 0.024; under setting [4], 0.998 ± 0.023; under setting [5], 1.01 ± 0.011; under setting [6], 1.01.

`NCC1(CC(=O)O)CCCCC1` [Gabapentin]: the normalised cell viability by setting is: under setting [1], 0.9963 ± 0.0063; under setting [2], 0.971 ± 0.021; under setting [3], 0.998 ± 0.013; under setting [4], 0.976 ± 0.021; under setting [5], 0.9867 ± 0.0025; under setting [6], 0.9807 ± 0.0055.

In the case of `CCN1CCN(C(=O)Cc2ccc(Nc3ncc(F)c(Nc4ccc(C(=O)Nc5ccccc5Cl)cc4)n3)cc2)CC1` [Aurora A Inhibitor I], the normalised cell viability runs as follows: under setting [1], 0.901 ± 0.019; under setting [2], 0.966 ± 0.019; under setting [3], 0.875 ± 0.055; under setting [4], 0.939 ± 0.027; under setting [5], 0.87 ± 0.03; under setting [6], 0.991 ± 0.013.

Take `CCCn1c(=O)c2[nH]c(C3CCCC3)nc2n(CCCOC(=O)c2ccc(S(=O)(=O)F)cc2)c1=O`: the normalised cell viability reads like this: under setting [1], 0.992 ± 0.011; under setting [2], 0.992 ± 0.033; under setting [3], 0.984 ± 0.011; under setting [4], 0.962 ± 0.011; under setting [5], 0.9787 ± 0.0075; under setting [6], 0.985 ± 0.0089.

For the molecule `CCOC(=O)c1cncn1[C@H](C)c1ccccc1` [Etomidate], the normalised cell viability worked out at 0.9933 ± 0.006 under setting [1]; 1.02 ± 0.01 under setting [2]; 1.002 ± 0.0072 under setting [3]; 1.02 ± 0.021 under setting [4]; 1.002 ± 0.0076 under setting [5]; 0.9977 ± 0.004 under setting [6].

For `CCC1(c2ccc(N)cc2)CCC(=O)NC1=O` (racemic) [(±)-p-Aminoglutethimide], the normalised cell viability by setting is: under setting [1], 0.997 ± 0.0052; under setting [2], 1.01; under setting [3], 0.866 ± 0.23; under setting [4], 1 ± 0.027; under setting [5], 1.006 ± 0.0063; under setting [6], 1.

With `CCCCCCC(C)(C)c1ccc([C@@H]2C[C@H](O)CC[C@H]2CCCO)c(O)c1`, the normalised cell viability is, setting by setting: under setting [1], 1.01; under setting [2], 1.023 ± 0.0058; under setting [3], 0.992 ± 0.0035; under setting [4], 1.015 ± 0.0071; under setting [5], 0.984 ± 0.012; under setting [6], 1.004 ± 0.0098.

In the case of `CN1[C@@H]2CC[C@H]1C[C@@H](OC(=O)c1cc(Cl)cc(Cl)c1)C2` [3-Tropanyl-3,5-dichlorobenzoate], the normalised cell viability runs as follows: under setting [1], 0.9737 ± 0.0057; under setting [2], 0.962 ± 0.024; under setting [3], 1.01 ± 0.025; under setting [4], 1.02 ± 0.015; under setting [5], 0.9827 ± 0.0051; under setting [6], 0.9933 ± 0.0083.

In the case of `O=[N+]([O-])c1ccc(O[C@@H]2O[C@H](CO)[C@@H](O)[C@H](O)[C@H]2F)c([N+](=O)[O-])c1` [2,4-Dinitrophenyl 2-fluoro-2-deoxy-beta-D-glucopyranoside], the normalised cell viability under setting [1] was determined as 0.9917 ± 0.004; the normalised cell viability under setting [2] was 0.989 ± 0.02; the normalised cell viability under setting [3] came out at 0.991 ± 0.023; the normalised cell viability under setting [4] was 0.974 ± 0.03; the normalised cell viability under setting [5] stood at 0.9807 ± 0.0021; the normalised cell viability under setting [6] was determined as 0.9817 ± 0.0064.

Take `O=C(O)c1nn(Cc2ccc(Cl)cc2Cl)c2ccccc12` [Lonidamine]: the normalised cell viability by setting is: under setting [1], 1.006 ± 0.0075; under setting [2], 0.997 ± 0.012; under setting [3], 1.01 ± 0.013; under setting [4], 0.997 ± 0.011; under setting [5], 0.9953 ± 0.0032; under setting [6], 1 ± 0.015.

Consider `CC(C)(C)c1cc(C=C(C#N)C#N)cc(C(C)(C)C)c1O` [Tyrphostin A9], for which the normalised cell viability is 0.978 ± 0.018 under setting [1]; 0.444 ± 0.018 under setting [2]; 1.02 ± 0.02 under setting [3]; 0.864 ± 0.039 under setting [4]; 1.02 ± 0.011 under setting [5]; 0.16 ± 0.025 under setting [6].

Take `CC(C)(C)c1cc(C=C(C#N)C#N)cc(C(C)(C)C)c1O` [Tyrphostin 9]: the normalised cell viability was 1 ± 0.021 under setting [1]; 0.725 ± 0.028 under setting [2]; 0.9987 ± 0.0011 under setting [3]; 1.05 ± 0.031 under setting [4]; 1.007 ± 0.0058 under setting [5]; 0.402 ± 0.13 under setting [6].

In the case of `CCC1(C2=NCCN2)Cc2ccccc2O1` (centres undefined) [Efaroxan hydrochloride], the normalised cell viability under setting [1] worked out at 1.017 ± 0.0058; the normalised cell viability under setting [2] was found to be 1.02 ± 0.017; the normalised cell viability under setting [3] turned out to be 1.02 ± 0.011; the normalised cell viability under setting [4] stood at 1.03 ± 0.011; the normalised cell viability under setting [5] stood at 1.023 ± 0.0058; the normalised cell viability under setting [6] is 1.017 ± 0.0058.

In the case of `CC[C@@H](CO)NC(=O)[C@@H]1C=C2c3cccc4[nH]cc(c34)C[C@H]2N(C)C1` [Methylergonovine maleate], the normalised cell viability came to 1.01 ± 0.01 under setting [1]; 1.03 ± 0.035 under setting [2]; 1.01 ± 0.012 under setting [3]; 1.05 ± 0.067 under setting [4]; 1 under setting [5]; 1.02 ± 0.015 under setting [6].

Regarding `NC(N)=Nc1ccc2[nH]c3c(c2c1)C[C@@]1(O)[C@H]2Cc4ccc(O)c5c4[C@@]1(CCN2CC1CC1)[C@H]3O5` [5'-Guanidinonaltrindole di(trifluoroacetate)], the normalised cell viability is, setting by setting: under setting [1], 1.017 ± 0.0058; under setting [2], 1.01 ± 0.011; under setting [3], 1.02 ± 0.011; under setting [4], 1.03 ± 0.015; under setting [5], 1.013 ± 0.0058; under setting [6], 1.017 ± 0.0058.

With `CCOC(=O)c1ncn2c1[C@@H]1CCCN1C(=O)c1cc(OC)ccc1-2`, the normalised cell viability under setting [1] worked out at 1.006 ± 0.0069; the normalised cell viability under setting [2] is 0.989 ± 0.038; the normalised cell viability under setting [3] was found to be 1.006 ± 0.0075; the normalised cell viability under setting [4] was found to be 1.01 ± 0.011; the normalised cell viability under setting [5] was determined as 0.988 ± 0.0027; the normalised cell viability under setting [6] was found to be 0.999 ± 0.01.

Turning to `Cc1o[nH]c(=O)c1CC(N)C(=O)O` (racemic) [(±)-AMPA hydrobromide], the normalised cell viability reads like this: under setting [1], 0.995 ± 0.016; under setting [2], 0.983 ± 0.016; under setting [3], 0.999 ± 0.0095; under setting [4], 0.994 ± 0.025; under setting [5], 0.982 ± 0.0027; under setting [6], 0.98 ± 0.007.

In the case of `COc1ccc2c(c1O)-c1cccc3c1[C@@H](C2)N(C)CC3` [R(-)-Apocodeine hydrochloride], the normalised cell viability was 0.9967 ± 0.0058 under setting [1]; 1.007 ± 0.0058 under setting [2]; 0.996 ± 0.012 under setting [3]; 1.01 ± 0.015 under setting [4]; 0.9657 ± 0.0042 under setting [5]; 0.976 ± 0.0036 under setting [6].

On to `C[N+]1(C)CCc2cc3c(cc2[C@H]1[C@@H]1OC(=O)c2c1ccc1c2OCO1)OCO3` [(-)-Bicuculline methbromide, 1(S), 9(R)], for which the normalised cell viability was 1.013 ± 0.0058 under setting [1]; 1.02 ± 0.015 under setting [2]; 1.01 ± 0.013 under setting [3]; 1.01 ± 0.02 under setting [4]; 0.9797 ± 0.0011 under setting [5]; 0.9903 ± 0.0025 under setting [6].

(Values after the supplement of paper PMC8285479.)
